In PubChem BioAssay (NCI):
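Exposure lasted 48 hours, with cells grown in 96-well plates and compounds tested at five concentrations. The concentration for 50% growth inhibition is given as GI50.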 Certain results were filed several times, with different values. This is not the full list of results. The source may hold further records. Values that stand side by side are repeats across runs, samples, wells, individuals or studies. A tag in brackets gives the origin of a value. A, B and so on number the origins entry by entry.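 The concentration for full growth arrest is given as TGI.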

Tested on: PC-3 prostate
Assay: DTP human tumour cell line panel, 48 h

## O/N=C/C1C(OCc2ccccc2)C(OCc2ccccc2)C(OCc2ccccc2)CN1Cc1ccccc1 (configuration not stated)
  GI50: 6.9 µM [sample A, 1 test] and 12.4 nM [sample B, 1 test]
  TGI: 49.9 µM [sample A, 1 test] and 4.14 µM [sample B, 1 test]
